Results on 62 molecules are retold here after the supplement of paper PMC9446081.

SMILES strings stand for the structures. The whole screen tested about 39,000 compounds, of which about 220 (0.56%) showed activity. Some of the results follow.
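Also: static incubation at 37 °C against the wild-type strain, values averaged over two biological replicates.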

The test deals with Escherichia coli K-12 BW25113. The test is described as follows: relative growth (OD600 normalised to plate interquartile mean) (fraction); higher = less growth inhibition, active = 0.2 or less. The settings on record: 50 µM; LB; incubation time: overnight (16-24 h).
On to `Cc1noc(C)c1NC(=O)Nc1ccc2c(c1)CC(=O)N([C@@H](C)CO)C[C@@H](C)[C@@H](CN(C)C(=O)NC(C)C)O2`, for which the relative growth is inactive: 0.98.

As to `C[C@@H]1CN([C@H](C)CO)C(=O)c2cc(NS(=O)(=O)c3cccs3)ccc2O[C@@H](C)CCCCO[C@H]1CN(C)Cc1ccccc1`, the relative growth was inactive: 0.995.

Regarding `Cc1ccc(S(=O)(=O)Nc2ccc3c(c2)C(=O)N([C@H](C)CO)C[C@@H](C)[C@@H](CN(C)C(=O)Nc2cccc4ccccc24)OCCCC[C@@H](C)O3)cc1`, the relative growth is inactive: 1.03.

For `COc1ccc(CN(C)C[C@H]2OCCCC[C@H](C)Oc3ccc(NC(=O)Nc4ccccc4)cc3C(=O)N([C@@H](C)CO)C[C@H]2C)cc1`, the relative growth was inactive: 0.899.

Take `COCC(=O)N1C[C@]2(C1)CN([C@@H](CO)c1c2c2ccc(cc2n1C)OC)C(=O)CN1CCOCC1`: the relative growth is inactive: 1.02.

In the case of `C[C@@H]1CCCCO[C@H](CN(C)C(=O)NC2CCCCC2)[C@H](C)CN([C@H](C)CO)C(=O)c2cc(NC(=O)Nc3ccc(C(F)(F)F)cc3)ccc2O1`, the relative growth was inactive: 1.

Take `C[C@@H]1COS(=O)(=O)N1`: the relative growth is inactive: 1.01.

Take `C[C@@H]1CCCCO[C@@H](CN(C)S(=O)(=O)c2cccs2)[C@@H](C)CN([C@@H](C)CO)C(=O)c2cc(NC(=O)Nc3ccc(F)cc3)ccc2O1`: the relative growth was inactive: 0.978.

For `O=C(C[C@H]1CC[C@@H]2[C@H](COC[C@H](O)CN2S(=O)(=O)c2ccccc2F)O1)NCc1ccccc1Cl`, the relative growth is inactive: 0.992.

Regarding `C[C@@H]1CCCCO[C@@H](CN(C)C(=O)Cc2ccccc2)[C@H](C)CN([C@@H](C)CO)C(=O)c2cc(NC(=O)c3ccccc3)ccc2O1`, the relative growth was inactive: 0.969.

For the molecule `C[C@H](CO)N1C[C@H](C)[C@@H](CN(C)Cc2ccccc2)OCCCC[C@H](C)Oc2ccc(NC(=O)Nc3ccc(C(F)(F)F)cc3)cc2C1=O`, the relative growth was inactive: 0.998.

Take `COc1cccc(C#Cc2ccc3c(c2)O[C@@H](CN(C)C(=O)CN2CCOCC2)[C@H](C)CN([C@@H](C)CO)S3(=O)=O)c1`: the relative growth was inactive: 1.02.

Regarding `COc1ccccc1CNC(=O)C[C@@H]1C[C@H]2c3cc(NC(=O)c4cccnc4)ccc3O[C@H]2[C@@H](CO)O1`, the relative growth was inactive: 0.977.

With `COc1cc2c(cc1OC)-c1c(oc3c4c(ccc3c1=O)OC(C)(C)C=C4)CO2`, the relative growth is inactive: 1.11.

For `C[C@@H]1CN([C@@H](C)CO)S(=O)(=O)c2ccc(C#Cc3cccnc3)cc2O[C@H]1CN(C)C(=O)Nc1ccc2c(c1)OCO2`, the relative growth is inactive: 1.

Consider `COc1ccc(S(=O)(=O)N(C)C[C@H]2Oc3c(cccc3N(C)C)C(=O)N([C@@H](C)CO)C[C@H]2C)cc1`, for which the relative growth was inactive: 0.994.

For `C[C@@H]1CN([C@@H](C)CO)C(=O)Cc2cc(NC(=O)Cc3cn(C)c4ccccc34)ccc2O[C@H]1CN(C)S(=O)(=O)c1cn(C)cn1`, the relative growth was inactive: 1.02.

Regarding `C[C@H]1CCCCO[C@H](CN(C)Cc2ccc(C(=O)O)cc2)[C@@H](C)CN([C@@H](C)CO)C(=O)c2cc(NC(=O)Nc3cccc4ccccc34)ccc2O1`, the relative growth is inactive: 1.01.

Regarding `Cn1c(=O)c2c(ncn2CC(=O)Nc2nc3ccccc3[nH]2)n(C)c1=O`, the relative growth was inactive: 0.996.

For `c1ccc2c(c1)Cc1cccnc1-2`, the relative growth was inactive: 0.979.

As for `COc1ccc(NC(=O)Nc2ccc3c(c2)C(=O)N([C@H](C)CO)C[C@H](C)[C@H](CN(C)Cc2ccc(C(F)(F)F)cc2)OCCCC[C@H](C)O3)cc1`, the relative growth is inactive: 0.999.

On to `C[C@@H]1CN([C@H](C)CO)S(=O)(=O)c2ccc(C#CC3(O)CCCC3)cc2O[C@@H]1CN(C)C(=O)c1ccncc1`, for which the relative growth was inactive: 1.03.

As for `C[C@@H]1CN([C@H](C)CO)C(=O)c2cc(NS(=O)(=O)c3cn(C)cn3)ccc2O[C@@H]1CN(C)Cc1ccc(C(=O)O)cc1`, the relative growth was inactive: 0.981.

Regarding `C[C@@H]1CCCCO[C@@H](CN(C)C(=O)Nc2ccc(C(F)(F)F)cc2)[C@@H](C)CN([C@H](C)CO)C(=O)c2cc(N(C)C)ccc2O1`, the relative growth is inactive: 0.984.

`O=C1c2ccccc2-c2nc(-c3ccccc3)cc3cccc1c23`: the relative growth was inactive: 0.98.

With `C[C@H](CO)N1C[C@H](C)[C@@H](CN(C)C(=O)Nc2ccccc2)OCCCC[C@H](C)Oc2ccc(NS(=O)(=O)c3ccc(Cl)cc3)cc2C1=O`, the relative growth is inactive: 1.

With `COc1cccc(C(=O)c2ccccc2)c1`, the relative growth is inactive: 0.849.

For `C[C@@H]1CCCCO[C@H](CN(C)Cc2ccc3c(c2)OCO3)[C@H](C)CN([C@H](C)CO)C(=O)c2cc(NC(=O)C3CCCCC3)ccc2O1`, the relative growth was inactive: 1.03.

For `CCC(C)(C)C(=O)C(=O)N1CCCC[C@H]1C(=O)O[C@@H](CCc1ccc(OC)c(OC)c1)c1cccc(OCC(=O)NCCc2ccc(O)cc2)c1`, the relative growth was inactive: 1.02.

Regarding `C[C@@H]1CN([C@H](C)CO)C(=O)c2cccc(NC(=O)Nc3ccc(C(F)(F)F)cc3)c2O[C@@H]1CN(C)CC1CCCCC1`, the relative growth is inactive: 0.966.

With `C[C@H]1CN([C@@H](C)CO)C(=O)CCCn2cc(nn2)CO[C@@H]1CN(C)C(=O)Nc1ccnc(N2CCOCC2)c1`, the relative growth is inactive: 0.989.

As for `CN(C)CC(=O)N1CC(=O)N2[C@H](CO)[C@@H](c3ccc(C#Cc4cccnc4)cc3)[C@H]2C1`, the relative growth was inactive: 0.995.

For the molecule `C[C@@H]1CCCCO[C@@H](CN(C)Cc2ccc(C(=O)O)cc2)[C@@H](C)CN([C@H](C)CO)C(=O)c2cc(NC(=O)Nc3ccc(F)cc3)ccc2O1`, the relative growth was inactive: 1.

Turning to `Cc1ccc(S(=O)(=O)N(C)C[C@H]2Oc3c(NS(=O)(=O)c4cccs4)cccc3C(=O)N([C@@H](C)CO)C[C@H]2C)cc1`, the relative growth was inactive: 1.

Take `COC(=O)C=CC(C)=CC=CC(C)=CC=CC=C(C)C=CC=C(C)C=CC(=O)O`: the relative growth is inactive: 1.02.

Regarding `CN(C)CCCNC(=O)C[C@@H]1CC[C@@H]2[C@H](COc3ccc(NS(C)(=O)=O)cc3C(=O)N2C)O1`, the relative growth was inactive: 1.

For `COc1ccc(S(=O)(=O)N(C)C[C@@H]2Oc3ccc(NC(=O)NC(C)C)cc3C(=O)N([C@H](C)CO)C[C@@H]2C)cc1`, the relative growth is inactive: 1.02.

`COc1ccc(NC(=O)N(C)C[C@H]2Oc3c(NC(=O)c4cnccn4)cccc3C(=O)N([C@@H](C)CO)C[C@@H]2C)cc1`: the relative growth is inactive: 0.961.

For the molecule `IC(I)I`, the relative growth is inactive: 0.575.

As for `CN1C(=O)c2ccccc2C1=O`, the relative growth was inactive: 0.984.

With `Cc1nn2cc(CN)nc2s1`, the relative growth is inactive: 1.01.

Regarding `O=C(C[C@H]1C[C@@H]2c3cc(NC(=O)c4cccnc4)ccc3O[C@@H]2[C@@H](CO)O1)NCc1cc(F)ccc1F`, the relative growth was inactive: 0.977.

In the case of `Cn1cnc(S(=O)(=O)N[C@@H]2C=C[C@@H](CC(=O)N3CCN(c4ccccc4)CC3)O[C@H]2CO)c1`, the relative growth is inactive: 1.01.

On to `C[C@@H]1CN([C@H](C)CO)C(=O)c2cccc(NC(=O)Nc3cccc4ccccc34)c2O[C@@H]1CN(C)C(=O)Nc1ccc(C(F)(F)F)cc1`, for which the relative growth was inactive: 0.984.

As for `CCNC(=O)C[C@@H]1CC[C@H]2[C@@H](COC[C@@H](O)CN2C(=O)Nc2c(C)noc2C)O1`, the relative growth is inactive: 1.01.

On to `C[C@H]1CN([C@@H](C)CO)C(=O)c2cccc(NC(=O)Nc3ccc(C(F)(F)F)cc3)c2O[C@H]1CN(C)Cc1ccc(C(F)(F)F)cc1`, for which the relative growth is inactive: 1.01.

For `Cc1ccc(N2CCC[C@]3(CCNC3=O)C2)nn1`, the relative growth was inactive: 1.01.

`CC(=O)CNC(=O)Cc1ccccc1`: the relative growth was inactive: 1.

For the molecule `C[C@@H]1CCCCO[C@@H](CN(C)C(=O)Nc2ccc(C(F)(F)F)cc2)[C@@H](C)CN([C@H](C)CO)C(=O)c2cc(NC(=O)Nc3ccc(C(F)(F)F)cc3)ccc2O1`, the relative growth was inactive: 0.999.

On to `C[C@@H]1CN([C@H](C)CO)C(=O)CCCn2cc(nn2)CO[C@@H]1CN(C)S(=O)(=O)c1ccc(Oc2ccccc2)nc1`, for which the relative growth was inactive: 1.01.

`Cc1noc(C)c1NC(=O)N(C)C[C@H]1Oc2ccc(NC(=O)Cn3cnnn3)cc2CC(=O)N([C@H](C)CO)C[C@H]1C`: the relative growth is inactive: 0.994.

As for `COc1cccc(NC(=O)N[C@@H]2C=C[C@H](CC(=O)N3CCOCC3)O[C@H]2CO)c1`, the relative growth is inactive: 0.989.

With `O=C([O-])P(=O)([O-])[O-].[Na+].[Na+].[Na+]`, the relative growth was inactive: 1.03.

Take `C[C@@H]1CCCCO[C@H](CN(C)C(=O)c2ccncc2)[C@@H](C)CN([C@H](C)CO)C(=O)c2cc(NS(=O)(=O)c3ccc(Cl)cc3)ccc2O1`: the relative growth is inactive: 0.958.

For the molecule `Cc1ccc(S(=O)(=O)N(C)C[C@H]2Oc3c(NC(=O)c4ccncc4)cccc3C(=O)N([C@H](C)CO)C[C@@H]2C)cc1`, the relative growth is inactive: 0.97.

On to `COc1ccc(-c2cnc3c(c2)C(=O)N([C@@H](C)CO)C[C@@H](C)[C@@H](CN(C)S(=O)(=O)c2ccc(OC)cc2)O3)cc1`, for which the relative growth is inactive: 1.01.

In the case of `Cc1noc(C)c1NC(=O)Nc1ccc2c(c1)C(=O)N([C@H](C)CO)C[C@H](C)[C@@H](CN(C)Cc1ccc(C(F)(F)F)cc1)OCCCC[C@@H](C)O2`, the relative growth is inactive: 1.03.

As to `Cc1ccc(S(=O)(=O)N(C)C[C@@H]2Oc3ccc(N(C)C)cc3CC(=O)N([C@H](C)CO)C[C@H]2C)cc1`, the relative growth is inactive: 1.

In the case of `Cc1noc(C)c1S(=O)(=O)N(C)C[C@@H]1Oc2ccc(NC(=O)CCC(F)(F)F)cc2CC(=O)N([C@H](C)CO)C[C@H]1C`, the relative growth was inactive: 1.03.

As for `CC(C)NC(=O)Nc1ccc2c(c1)C(=O)N([C@H](C)CO)C[C@H](C)[C@@H](CN(C)S(=O)(=O)c1cn(C)cn1)O2`, the relative growth was inactive: 1.01.

Turning to `C[C@@H]1CN([C@H](C)CO)C(=O)c2cccc(NC(=O)c3nc4ccccc4s3)c2O[C@H]1CN(C)Cc1ccc(C(F)(F)F)cc1`, the relative growth was inactive: 0.969.

For `Cc1noc(C)c1NC(=O)Nc1ccc2c(c1)C(=O)N([C@H](C)CO)C[C@@H](C)[C@H](CN(C)S(=O)(=O)c1ccc(Cl)cc1)OCCCC[C@@H](C)O2`, the relative growth was inactive: 0.863.
